# Measurements reported in PubChem BioAssay AID488969 (Vanderbilt High Throughput Screening Facility, 2010).
# The full ranking holds about 110,000 compounds; the median of “z-score” is about -0.1, and the highest 2% start at about 2. The list shows a part of the results. Calls of active or inactive are those of the source.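 Rule for the calls: active = z-score in the third read window above 3 or below -3; inactive = the rest.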
# Molecular target: Metabotropic glutamate receptor 8 (Rattus norvegicus) (UniProt P70579)
# Assay: rat mGluR8 modulators via GIRK flux, primary screen, cell-based, thallium flux, HTS (AID 488969)
# Conditions: HEK293 rat mGluR8, GIRK (G protein-gated inwardly rectifying potassium channel) thallium flux, FluoZin2; at 10 µM; stronger effect = higher value; submaximal glutamate (EC20) added with thallium
# Sequence of UniProt P70579 (P70579 whole entry, looked up): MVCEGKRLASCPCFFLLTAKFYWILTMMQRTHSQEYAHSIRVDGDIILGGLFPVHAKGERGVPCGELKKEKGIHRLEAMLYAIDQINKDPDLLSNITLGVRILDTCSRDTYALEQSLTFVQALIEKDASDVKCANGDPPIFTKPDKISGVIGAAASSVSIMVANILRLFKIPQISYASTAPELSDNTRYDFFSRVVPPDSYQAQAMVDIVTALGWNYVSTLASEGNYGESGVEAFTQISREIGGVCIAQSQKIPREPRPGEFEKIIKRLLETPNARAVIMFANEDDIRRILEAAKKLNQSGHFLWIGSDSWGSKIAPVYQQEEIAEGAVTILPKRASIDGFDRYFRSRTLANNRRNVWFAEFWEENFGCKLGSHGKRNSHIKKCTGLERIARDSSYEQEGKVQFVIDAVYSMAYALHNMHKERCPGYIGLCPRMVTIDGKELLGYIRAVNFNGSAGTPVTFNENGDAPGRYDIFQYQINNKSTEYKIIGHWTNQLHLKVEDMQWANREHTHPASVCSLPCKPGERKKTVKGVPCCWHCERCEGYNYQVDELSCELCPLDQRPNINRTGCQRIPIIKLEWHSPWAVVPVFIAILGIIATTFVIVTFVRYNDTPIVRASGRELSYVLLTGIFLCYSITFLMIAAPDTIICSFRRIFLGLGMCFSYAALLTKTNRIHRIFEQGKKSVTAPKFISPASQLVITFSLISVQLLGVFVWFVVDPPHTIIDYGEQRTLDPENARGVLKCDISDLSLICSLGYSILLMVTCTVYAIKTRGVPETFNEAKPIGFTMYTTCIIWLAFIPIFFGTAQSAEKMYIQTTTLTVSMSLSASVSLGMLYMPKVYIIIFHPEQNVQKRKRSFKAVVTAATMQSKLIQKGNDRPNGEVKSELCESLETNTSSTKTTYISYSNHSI
row,SMILES,z-score
1,COC(=O)C1=C(C)N(CCc2ccc(OC)c(OC)c2)C(=O)C1,-0.0996
2,CCOC(=O)CN(C(=O)CNC(=O)c1ccco1)C(C(=O)NC1CCCCC1)c1cccs1 (stereo unspecified),0.241
3,CN(C)c1ccc(-c2noc(C3CCN(S(=O)(=O)c4cccc(C(=O)O)c4)CC3)n2)cc1,-0.634
4,COC(=O)c1cc(OC)c(OC)cc1NC(=O)c1oc2ccccc2c1C,-0.441
5,COc1ccc(NC(C)=O)cc1NC(=O)CSc1nnc(-c2ccncc2)n1C,-0.169
6,CCCOc1ccc(CSc2nc3ccccc3[nH]2)cc1,1.22
7,Cc1c(C)c2ccc(Oc3ccc([N+](=O)[O-])cc3C(F)(F)F)c(C)c2oc1=O,0.074
8,CC(=O)c1cccc(NC(=S)NC(=O)c2ccccc2Cl)c1,1.17
9,COc1cc(NC(=O)CCC2CCCC2)cc(-n2cnnn2)c1,-0.326
10,COc1cc(C)ccc1OCCOCCOc1ccccc1Br,0.165
11,C=CCNC(=O)c1ccc(Sc2ccc(C)cc2)c([N+](=O)[O-])c1,0.15
12,Clc1ccc(OCCCCCN2CCCC2)c(Br)c1,1.1
13,O=C1c2ccccc2CN1CCNS(=O)(=O)c1ccc(Cl)cc1,-0.0894
14,c1ccc2sc(N3CCOCC3)nc2c1,0.0591
15,CCc1ccc2[nH]c(=O)c(CN(Cc3ccccc3)C(=O)Nc3ccccc3OC)cc2c1,0.0431
16,CC(C)CNC(=O)NC(=O)COc1ncnc2sccc12,-0.218

row,SMILES,z-score
1,O=C(C[n+]1ccc(-c2nnc3n2CCC3)cc1)c1ccc(Cl)c(Cl)c1,-0.0551
2,O=C(N/N=C/c1ccccc1O)/C(=C/c1ccccc1)CCO,-0.0583
3,CCc1cc(C(c2ccccc2OC)N2CCOCC2)c(NC(=O)c2ccccc2)s1 (stereo unspecified),-0.807
4,O=C(CCN1CCCCC1)NCC1OCCc2ccccc21 (stereo unspecified),-0.0974
5,O=C(CC1(O)C(=O)N(Cc2ccccc2Cl)c2ccccc21)c1ccco1 (stereo unspecified),-0.492
6,Nc1ccc(C#Cc2ccccc2)cc1,0.0818
7,Cc1cc(Cl)ccc1NC(=O)NC1CCN(S(=O)(=O)c2ccc(F)cc2)CC1,0.136
8,CCOC(=O)c1ccccc1NC(=O)CN(c1ccccc1C)S(C)(=O)=O,-0.397
9,CC1(C)Cc2c(C#N)c(OCC(=O)c3ccc(Cl)cc3)nc(-c3ccco3)c2CO1,-0.109
10,CSC1=N/C(=C\c2ccc(Br)o2)C(=O)S1,active: 3.73
11,COc1ccc(C2(C(=O)Nc3ccccc3)CCOCC2)cc1,-0.179
12,CCCCCCC/C(C)=N/NC(=O)CC(=O)NCCc1ccccc1,-0.0928
13,COc1ccc(C)cc1NC(=O)NC1CCN(Cc2ccccc2)CC1,0.267
14,Cc1[nH]nc2c1C(c1cccc(OC(=O)N3CCOCC3)c1)C(C#N)=C(N)O2 (stereo unspecified),-0.263
15,CCCCNCCOc1ccccc1-c1ccccc1,0.263
